The values that follow come from the supplement of paper PMC11417369.

± gives the standard deviation of the averaged measurements. Some of the results follow.

The subject of this assay is PfAP2-LT AP2 domain (GST-tagged). Nature of the assay: gcPBM binding intensity (ln(normalized median fluorescence intensity)); higher = stronger DNA binding. The method, boiled down:
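GST-fused DNA-binding domains of P. falciparum, expressed in E. coli, were applied at about 25 μg on average for 1 h to an Agilent 4 × 180k array of primer-extended double-stranded 36-bp intergenic genomic probes and negative controls. Binding intensity is the highest Masliner-normalised natural-log median intensity across replicate spots of either probe orientation, measured with Alexa488 anti-GST antibody and a 488 nm scan.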
On to “AATTATTTATTGAGAGTGCAACAAATTATTTCAAAT [GTGCAC_site9461]”, for which the “gcPBM binding intensity (ln)” value was 8.44 ± 0.49.
Regarding “ACATTTTAAATACGATGTACTTGAGTTTTTTTTAAA [XGTACX_site5833]”, the “gcPBM binding intensity (ln)” value worked out at 8.43 ± 0.4.
Consider “TTTTTTTGCATGAGCAATAAAAAAGGCTTGTTCAAA [CACACA_negctrl_site1615]”, for which the “gcPBM binding intensity (ln)” value was found to be 8.05 ± 0.3.
With “TTATATATTAAGAAATGTACGAAAAAAAAAATTATA [XGTACX_site3893]” the figure was 8.4 ± 0.59.
For the sequence “AAGATGATAAAATATGTACACACAGTTTATACATTT [CACACA_site9341]”, the “gcPBM binding intensity (ln)” value amounted to 8.93 ± 0.47.
“TATAATAATAATAATAATAATAATAATAATAATAAT [CACACA_negctrl_site905]”: the “gcPBM binding intensity (ln)” value came to 8.66 ± 0.35.
As for “CGCATAAAGACAAGAACACACATATAGATTGTAGTA [CACACA_site3693]”, the “gcPBM binding intensity (ln)” value came to 9.02 ± 0.44.
Then “AAAAAAAATTATATATGTACTTATTAATCCTTTTAT [XGTACX_site1387]”, with 8.56 ± 0.44; and “TACATATATGATAAAAGTACATATAAATATACATAA [XGTACX_site3804]”, with 8.74 ± 0.45.
Consider “GAAATAAAAGATGGTTGTACACCGTTTTCTCATATA [XGTACX_site5368]”, for which the “gcPBM binding intensity (ln)” value is 8.73 ± 0.38.
Take “TATATGAATAAACATTGTACGTAAATATTAACTATC [XGTACX_site543]”: the “gcPBM binding intensity (ln)” value is 8.8 ± 0.38.
Consider “AAAGAGAACATAAGTACACACATGTTCTTTTAGTAA [CACACA_site2824]”, for which the “gcPBM binding intensity (ln)” value turned out to be 8.95 ± 0.56.
For “AAAGTAAAAACACATACATGCATATACACATATAAC [TGCATGCA_site341]”, the “gcPBM binding intensity (ln)” value turned out to be 9.16 ± 0.46.
With “AAAAAAAAAAAAAAAACACACAAAAGCAAGAAAAAC [CACACA_site3198]” the figure was 9.23 ± 0.52.
As to “ATAAATATGTATTGCTGTACATATATATAAATTATC [XGTACX_site8411]”, the “gcPBM binding intensity (ln)” value was 8.76 ± 0.41.
Take “AATAGGAAAACCTATACACACTTTAAAAAAAATATA [CACACA_site4977]”: the “gcPBM binding intensity (ln)” value was 8.71 ± 0.49.
With “TTTCTTATTTTTTTCACACACTAAACATTTCAAATG [CACACA_site5259]” the figure was 8.91 ± 0.54; with “TCAATAAGATTATAAAGTACTTTTGAAGATATTATA [XGTACX_site7489]”, 8.36 ± 0.43; with “AAATAAATAAATAAATGTACACATATATATATATAT [XGTACX_site7787]”, 9.575 ± 0.092.
Then “AAATATTTAAATATTATGTATGATTATATATATATA [CACACA_negctrl_site590]”, with 8.56 ± 0.35; and “TATATATTTAGTTAGTGTACAAGTTATTTAGTAGTT [XGTACX_site5133]”, with 8.69 ± 0.44.
Then “AAAAAAATAATGTATATATAAATTTATTTACATATG [GTGCAC_negctrl_site107]”, with 8.41 ± 0.47; and “TCTTTTAACAAATAATAAGCTAATTTATATTATTAT [GTGCAC_negctrl_site655]”, with 8.38 ± 0.57; and “TAAAAAATAAGATATACACACATATATTTATTTATA [CACACA_site7158]”, with 8.69 ± 0.44.
As to “CATATTTTCTTGTGTACACATTTATTTTATACTATA [CACACA_site6032]”, the “gcPBM binding intensity (ln)” value is 9.29 ± 0.47.
Then “CAAATAAATTAAAGGTGTACTTTTATAGTTACGACA [XGTACX_site3926]”, with 8.56 ± 0.51; and “TAAAAAATTTTCGCGTGTACGCAAGAAAAAAAAAAT [XGTACX_site3058]”, with 8.84 ± 0.42.
As for “TTTTTGCCATATTACACACACACATGGAAACCCCCT [CACACA_site4994]”, the “gcPBM binding intensity (ln)” value is 9.68 ± 0.36.
With “TTATAGAGCTTATTCACACATACATATGTATTTATA [CACACA_site5775]” the figure was 8.95 ± 0.45; with “TAAAACATATAAAGGTGTACGCCTTTTTGTATCAAT [XGTACX_site6064]”, 8.65 ± 0.47.
With “ATAATAAAAATATACTGTACATTTGTAAATTCTTTT [XGTACX_site4655]” the figure was 8.66 ± 0.44; with “TATATTTGTTGACACACACACAAAAAAAAAAAAAAA [CACACA_site7211]”, 9.23 ± 0.54; with “GTCTACTACACTAAATGTACAAGAAAAAAGAAAAAA [XGTACX_site4660]”, 8.55 ± 0.58.
In the case of “AAGAGTAAAATATGGTTGCACTAAAAATATATATTT [GTGCAC_site9484]”, the “gcPBM binding intensity (ln)” value came out at 8.67 ± 0.54.
For “CTTAATATATGTGGCACACATGTGGAGTCCTATTAA [CACACA_site4281]”, the “gcPBM binding intensity (ln)” value worked out at 8.99 ± 0.37.
Then “AAAAAAATATTAATGTGTACATAATAATAACATATA [XGTACX_site8319]”, with 8.78 ± 0.55; and “TATAAAATTCTGACTTGTACATGTGAAAAATAATTA [XGTACX_site1396]”, with 8.54 ± 0.43; and “TATATATATATATAATGTACACATTTTTATAACTAT [XGTACX_site5714]”, with 9.02 ± 0.35.
On to “GCGTTGTTTTTAAAAAGTACATTTTTATATAAGTTA [XGTACX_site8780]”, for which the “gcPBM binding intensity (ln)” value is 8.54 ± 0.46.
With “AAAATACAATTTCTAGCACACAAAATATTATTATAA [CACACA_site9056]” the figure was 8.7 ± 0.43; with “AAAGATGGAAAAAAAAATTTGTGTGTTGAAAGATAT [GTGCAC_negctrl_site19]”, 8.85 ± 0.61; with “TTTGTTTTTTTGAGAGTGCAATATATATAAAAAGGG [GTGCAC_site9691]”, 8.35 ± 0.3.
Then “TTGGTGATATTTTTCTCACACATTTACCAGAGATGT [CACACA_site4684]”, with 9.06 ± 0.44.
Take “CATAATAAGTATAACGTTAGTTACAAACAGCTTGTT [CACACA_negctrl_site937]”: the “gcPBM binding intensity (ln)” value amounted to 9 ± 0.38.
